Values marked as one replicate rest on one cluster of the flow cell; about a third of the high ones do not repeat.
Test system: ATP
Assay: switch fluorescence ratio, 500 uM ATP over buffer (Cy3 cluster intensity, sum of 5 cycles each) (fold (ratio)); higher = stronger signal-on switching upon ATP binding; sequences stand for … in TCGTCGGCAGCGTCAGATGTGTATAAGAGACAGTTTTTTTTTTTTTTTTTTTTTTTTT…TC
Conditions: aptamer strand: ATP DNA aptamer (quencher-CACCTGGGGGAGTATTGCGGAGGAAGG + anchor), 100 nM annealed; ATP concentration: 500 uM; one replicate
Summary of the method: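 Clusters with intensities outside 100-1000 RFU were excluded. The remaining Cy3-labelled switching-strand clusters on a modified Illumina MiSeq flow-cell had been annealed to 100 nM quencher-labelled ATP aptamer and imaged in selection buffer, then after 15 min with 500 uM ATP at 22 °C, for five cycles separated by NaOH stripping and re-annealing. The fluorescence ratio, averaged per switch-domain sequence, is each cluster's summed target-cycle Cy3 intensity over its summed buffer-cycle Cy3 intensity.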
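Further: ATP exposure 15 min at 22 °C before imaging.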

Sequence: GTGGAGGTT
- switch fluorescence ratio: 1.04

Sequence: AAAAAACATG
- switch fluorescence ratio: 1.02

Sequence: GGGTAACCAA
- switch fluorescence ratio: 0.993

Sequence: CTCGGGTAGC
- switch fluorescence ratio: 1.02

Sequence: CATGATGGGT
- switch fluorescence ratio: 0.955

Sequence: GTTTCCGGAT
- switch fluorescence ratio: 1.1

Sequence: CCTATAGACA
- switch fluorescence ratio: 1.05

Sequence: TTCATTTAGA
- switch fluorescence ratio: 0.989

Sequence: CTATCAGGAG
- switch fluorescence ratio: 0.998

Sequence: ACATGGTGCC
- switch fluorescence ratio: 1.03

Sequence: CTCGGTTATG
- switch fluorescence ratio: 0.974

Sequence: AGCGCTAAGG
- switch fluorescence ratio: 1.02

Sequence: AAGGCTACTG
- switch fluorescence ratio: 1.05

Sequence: CGGCTTGTAG
- switch fluorescence ratio: 1.01

Sequence: ATCTTCCAGC
- switch fluorescence ratio: 1.16

Sequence: GAAGGGAAGT
- switch fluorescence ratio: 0.994

Sequence: CCTGGGTTCT
- switch fluorescence ratio: 1

Sequence: TTCAATAGGC
- switch fluorescence ratio: 1.01

Sequence: GGGGCTATAC
- switch fluorescence ratio: 4.36

Sequence: CTGGGCACCG
- switch fluorescence ratio: 0.953

Sequence: TGCAACAAGG
- switch fluorescence ratio: 1.05

Sequence: CAAGGGGAT
- switch fluorescence ratio: 1.19

Sequence: GAGGGTACGT
- switch fluorescence ratio: 1.03

Sequence: CTTTCCCAAG
- switch fluorescence ratio: 1.1

Sequence: CAAAGCAATT
- switch fluorescence ratio: 3.12

Sequence: AAATTATCGC
- switch fluorescence ratio: 1.06

Sequence: CAAGAAAGCG
- switch fluorescence ratio: 0.99

Sequence: ACGAGTGGAA
- switch fluorescence ratio: 1.05

Sequence: AGACCGTAAT
- switch fluorescence ratio: 1.31

Sequence: ATCGACTCGT
- switch fluorescence ratio: 1.01

Sequence: GGCTGTTTAC
- switch fluorescence ratio: 1.02

Sequence: GCGCAATGGG
- switch fluorescence ratio: 1.28

Sequence: CTATAGGGA
- switch fluorescence ratio: 0.977

Sequence: GCCACATGTG
- switch fluorescence ratio: 1

Sequence: TCTACTCTT
- switch fluorescence ratio: 0.997

Sequence: GGTAGGTCGA
- switch fluorescence ratio: 0.992

Sequence: GGTTCCCCCA
- switch fluorescence ratio: 1.08

Sequence: TATTTAACAT
- switch fluorescence ratio: 0.994

Sequence: AGAGCCTAG
- switch fluorescence ratio: 0.978

Sequence: GGCTACTCAA
- switch fluorescence ratio: 1.09

Sequence: ATTCGTTGAT
- switch fluorescence ratio: 1.01

Sequence: CATAATAGCC
- switch fluorescence ratio: 1.06

Sequence: TCACAGTCTT
- switch fluorescence ratio: 1.04

Sequence: AGACGCTAGA
- switch fluorescence ratio: 1.05

Sequence: AGAGCAGCTA
- switch fluorescence ratio: 1.01

Sequence: GAATACGAG
- switch fluorescence ratio: 1.07

Sequence: GTGCAAGCTT
- switch fluorescence ratio: 1.02

Sequence: CCGTTCCAGT
- switch fluorescence ratio: 1.03

Sequence: CCACCATGCG
- switch fluorescence ratio: 1.16

Sequence: ACGTTATGGT
- switch fluorescence ratio: 1.13

Sequence: AATAGTATCA
- switch fluorescence ratio: 0.986

Sequence: CTAATTTTGA
- switch fluorescence ratio: 1.03

Sequence: ACTGTCTCGG
- switch fluorescence ratio: 1.03

Sequence: TCTTGAGGTA
- switch fluorescence ratio: 1.04

Sequence: TAGTTCATAA
- switch fluorescence ratio: 0.985

Sequence: TGTTGTAGTT
- switch fluorescence ratio: 0.987

Sequence: GGTCTTAGCT
- switch fluorescence ratio: 1.03

Sequence: TGATGAAGGG
- switch fluorescence ratio: 1.01

Sequence: GTTTCCTAGG
- switch fluorescence ratio: 1.01

Sequence: CTAGTTGTCA
- switch fluorescence ratio: 1.02

Sequence: CTTCAGCACG
- switch fluorescence ratio: 1.22

Sequence: TCGGAGTCGC
- switch fluorescence ratio: 1.07

Sequence: GCTCTCCAAC
- switch fluorescence ratio: 1.16

Sequence: ACCAAAGGGG
- switch fluorescence ratio: 1.06

Sequence: ATTAGCTCTG
- switch fluorescence ratio: 0.989

Sequence: GCGGATAGCT
- switch fluorescence ratio: 0.963

Sequence: ACACCGCTAA
- switch fluorescence ratio: 4.78

Sequence: CCAAAAAAGC
- switch fluorescence ratio: 0.963

Sequence: GAGGCAGCAC
- switch fluorescence ratio: 2.16

Sequence: GGAGTTGATG
- switch fluorescence ratio: 1.04

Sequence: TGGACATTGT
- switch fluorescence ratio: 0.986

Sequence: TTTAGTGTTA
- switch fluorescence ratio: 0.984

Sequence: AGGAGCAATG
- switch fluorescence ratio: 3.28

Sequence: TAGCAGGCT
- switch fluorescence ratio: 0.967

Sequence: TGCGAATATT
- switch fluorescence ratio: 1.01

Sequence: AGCAGATTAT
- switch fluorescence ratio: 0.977

Sequence: ACATTACTGA
- switch fluorescence ratio: 1.32

Sequence: TTGTGGGTGG
- switch fluorescence ratio: 0.994

Sequence: CGGCTGGATT
- switch fluorescence ratio: 1.02

Sequence: TTTAACTTCG
- switch fluorescence ratio: 0.994

Sequence: GTTCTTAGTT
- switch fluorescence ratio: 0.952

Sequence: GAAGCTTCAT
- switch fluorescence ratio: 1.03

Sequence: CTTGTAGAGT
- switch fluorescence ratio: 1.04

Sequence: CGGTATAAT
- switch fluorescence ratio: 0.959

Sequence: GCGCTGGGTT
- switch fluorescence ratio: 1.03

Sequence: AACATCACCG
- switch fluorescence ratio: 1.21

Sequence: GTCATTTGTT
- switch fluorescence ratio: 1.06

Sequence: ATTTAAACGT
- switch fluorescence ratio: 1.06

Sequence: ATGGTAAATG
- switch fluorescence ratio: 0.962

Sequence: TGATCAGCAT
- switch fluorescence ratio: 1.25

Sequence: CACCTTTGGG
- switch fluorescence ratio: 0.976

Sequence: GCTAATAAAA
- switch fluorescence ratio: 1.01

Sequence: TAGCTACGAT
- switch fluorescence ratio: 1.04

Sequence: ACGATACCTA
- switch fluorescence ratio: 1.36

Sequence: ATGGCCAGGC
- switch fluorescence ratio: 0.973

Sequence: TCTGTTTTCT
- switch fluorescence ratio: 0.954

Sequence: AGCAGTGTTA
- switch fluorescence ratio: 1.01

Sequence: AACAGAAACA
- switch fluorescence ratio: 0.997

Sequence: CTACTAGATT
- switch fluorescence ratio: 1.01

Sequence: GCACTGGTGA
- switch fluorescence ratio: 1.32

Sequence: GCATATTTCA
- switch fluorescence ratio: 0.99

Sequence: GCACTGGCAG
- switch fluorescence ratio: 1.04

Sequence: GATACCAACT
- switch fluorescence ratio: 1.06

Sequence: GAGAGGAGGA
- switch fluorescence ratio: 1.07

Sequence: TTTCACACCT
- switch fluorescence ratio: 1.29

Sequence: GGCTTGTGTC
- switch fluorescence ratio: 0.957

Sequence: TGCTCGCTAG
- switch fluorescence ratio: 0.992

Sequence: AGTCCACAGT
- switch fluorescence ratio: 1.1

Sequence: CAAGTTAGCG
- switch fluorescence ratio: 0.976

Sequence: GGTCTGCAGA
- switch fluorescence ratio: 1.02

Sequence: GTGTACGGAT
- switch fluorescence ratio: 1.02

Sequence: ACTAGTTCAT
- switch fluorescence ratio: 0.985

Sequence: AGCGGAAAAT
- switch fluorescence ratio: 1.03

Sequence: CATTGCGACG
- switch fluorescence ratio: 0.962

Sequence: ACAGGGGGAT
- switch fluorescence ratio: 1.07

Sequence: TACATGAACG
- switch fluorescence ratio: 1.1

Sequence: TGAAGAGCCG
- switch fluorescence ratio: 1.05

Sequence: ATCAAGTGTG
- switch fluorescence ratio: 0.96

Sequence: GGCCTGAGGA
- switch fluorescence ratio: 1.01

Sequence: CGTCTGGGGT
- switch fluorescence ratio: 0.99

Sequence: CCCTGGAAG
- switch fluorescence ratio: 1.32

Sequence: ATAGGTCTGT
- switch fluorescence ratio: 0.971

Sequence: TCTGCAACAT
- switch fluorescence ratio: 1.62

Sequence: ATGTAAGAGC
- switch fluorescence ratio: 0.961

Sequence: CAGTAACAGA
- switch fluorescence ratio: 1.03

Sequence: AAATCGTGGT
- switch fluorescence ratio: 0.963

Sequence: ATCGGGGACT
- switch fluorescence ratio: 1.04

Sequence: AGCCTTTGAG
- switch fluorescence ratio: 0.958

Sequence: TCGTACTCTA
- switch fluorescence ratio: 1.24

Sequence: CTGCGAGTCG
- switch fluorescence ratio: 1.01

Sequence: ATTGCACCTT
- switch fluorescence ratio: 1.09

Sequence: TGCTACTGGA
- switch fluorescence ratio: 0.942

Sequence: ATCAGGAGG
- switch fluorescence ratio: 0.987

Sequence: GCGATCGGGA
- switch fluorescence ratio: 1.01

Sequence: TTACCCCTCG
- switch fluorescence ratio: 1.09

Sequence: GACCCTATTT
- switch fluorescence ratio: 1.04

Sequence: ACGGGGTCGA
- switch fluorescence ratio: 0.934

Sequence: GTGGCCTCAC
- switch fluorescence ratio: 0.982

Sequence: GTTGCCAACT
- switch fluorescence ratio: 1

Sequence: GAAACCGCTC
- switch fluorescence ratio: 2.6

Sequence: GTTCGCTCCT
- switch fluorescence ratio: 1.08

Sequence: CCGATCTCTA
- switch fluorescence ratio: 1.1

Sequence: AACTCATACG
- switch fluorescence ratio: 1.09

Sequence: AAACTACCTG
- switch fluorescence ratio: 1.03

Sequence: CACGGACATT
- switch fluorescence ratio: 1.41

Sequence: CTAATTAGGA
- switch fluorescence ratio: 0.979

Sequence: ACTCTTCGGT
- switch fluorescence ratio: 1.02

Sequence: CTTGATATGT
- switch fluorescence ratio: 1.03

Sequence: CGGCGTAAAG
- switch fluorescence ratio: 1.01

Sequence: CCCGGGTGAA
- switch fluorescence ratio: 2.24

Sequence: GACTATACCC
- switch fluorescence ratio: 1.33

Sequence: ACTCAGTGTA
- switch fluorescence ratio: 1.01

Sequence: TCCTTTTACA
- switch fluorescence ratio: 1.04

Sequence: CTTAATGGGT
- switch fluorescence ratio: 0.913

Sequence: CGAGTTACTT
- switch fluorescence ratio: 1.06

Sequence: CTCGGCGGAC
- switch fluorescence ratio: 3.86

Sequence: AGCTCAAGT
- switch fluorescence ratio: 0.98
